The other results are listed elsewhere or left out.
Legend:
Experiment in all cases: glycan array binding signal (z-score within array); higher = stronger binding
Conditions in all cases: glycan notation: IUPAC condensed, linker removed; mutation: A146Q
[1] = molecular target: Neu5Ac(a2-6)Gal(b1-4)GlcNAc(b1-2)Man(a1-3)[Neu5Ac(a2-6)Gal(b1-4)GlcNAc(b1-2)Man(a1-6)]Man(b1-4)GlcNAc(b1-4)GlcNAc
Outline: (§1)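 From the Consortium for Functional Glycomics database, 3228 arrays were curated, keeping only those whose protein sequence was available. Binding is given as a within-array Z-score averaged across arrays sharing a protein sequence and across linkers. Negative Z-scores can be read as non-binding.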

[2] = molecular target: Neu5Ac(a2-6)Gal(b1-4)GlcNAc(b1-2)Man(a1-6)Man(b1-4)GlcNAc(b1-4)GlcNAc
Outline: as §1

[3] = molecular target: Neu5Ac(a2-6)Gal(b1-4)GlcNAc(b1-2)Man(a1-6)[Gal(b1-4)GlcNAc(b1-2)Man(a1-3)]Man(b1-4)GlcNAc(b1-4)GlcNAc
Outline: as §1

[4] = molecular target: Neu5Ac(a2-6)Gal(b1-4)GlcNAc(b1-2)Man(a1-6)[GlcNAc(b1-2)Man(a1-3)]Man(b1-4)GlcNAc(b1-4)GlcNAc
Outline: as §1

[5] = molecular target: Neu5Ac(a2-6)Gal(b1-4)GlcNAc(b1-2)Man(a1-6)[Man(a1-3)]Man(b1-4)GlcNAc(b1-4)GlcNAc
Outline: as §1

[6] = molecular target: Neu5Ac(a2-6)Gal(b1-4)GlcNAc(b1-3)Gal(b1-3)GlcNAc
Outline: as §1

[7] = molecular target: Neu5Ac(a2-6)Gal(b1-4)GlcNAc(b1-3)Gal(b1-4)GlcNAc
Outline: as §1

[8] = molecular target: Neu5Ac(a2-6)Gal(b1-4)GlcNAc(b1-3)Gal(b1-4)GlcNAc(b1-3)Gal(b1-4)GlcNAc
Outline: as §1

[9] = molecular target: Neu5Ac(a2-6)Gal(b1-4)GlcNAc(b1-3)Gal(b1-4)[Fuc(a1-3)]GlcNAc(b1-3)Gal(b1-4)[Fuc(a1-3)]GlcNAc
Outline: as §1

[10] = molecular target: Neu5Ac(a2-6)Gal(b1-4)GlcNAc(b1-3)GalNAc
Outline: as §1

[11] = molecular target: Neu5Ac(a2-6)Gal(b1-4)GlcNAc6S
Outline: as §1

Neu5Ac(a2-6)GalNAc = molecular target: Neu5Ac(a2-6)GalNAc
Outline: as §1

[12] = molecular target: Neu5Ac(a2-6)GalNAc(b1-4)GlcNAc
Outline: as §1

[13] = molecular target: Neu5Ac(a2-6)GlcNAc(b1-4)GlcNAc
Outline: as §1

[14] = molecular target: Neu5Ac(a2-6)GlcNAc(b1-4)GlcNAc(b1-4)GlcNAc
Outline: as §1

Neu5Ac(a2-8)Neu5Ac = molecular target: Neu5Ac(a2-8)Neu5Ac
Outline: as §1

[15] = molecular target: Neu5Ac(a2-8)Neu5Ac(a2-3)Gal(b1-4)Glc
Outline: as §1

[16] = molecular target: Neu5Ac(a2-8)Neu5Ac(a2-3)[GalNAc(b1-4)]Gal(b1-4)Glc
Outline: as §1

[17] = molecular target: Neu5Ac(a2-8)Neu5Ac(a2-8)Neu5Ac
Outline: as §1

[18] = molecular target: Neu5Ac(a2-8)Neu5Ac(a2-8)Neu5Ac(a2-3)Gal(b1-4)Glc
Outline: as §1

[19] = molecular target: Neu5Ac(a2-8)Neu5Ac(a2-8)Neu5Ac(a2-3)[GalNAc(b1-4)]Gal(b1-4)Glc
Outline: as §1

[20] = molecular target: Neu5Ac(a2-8)Neu5Ac(a2-8)Neu5Ac(a2-8)Neu5Ac(a2-3)[GalNAc(b1-4)]Gal(b1-4)Glc
Outline: as §1

[21] = molecular target: Neu5Ac(b2-6)Gal(b1-4)GlcNAc
Outline: as §1

Neu5Ac(b2-6)GalNAc = molecular target: Neu5Ac(b2-6)GalNAc
Outline: as §1

[22] = molecular target: Neu5Ac9Ac(a2-3)Gal(b1-3)GlcNAc
Outline: as §1

[23] = molecular target: Neu5Ac9Ac(a2-3)Gal(b1-4)GlcNAc
Outline: as §1

[24] = molecular target: Neu5Ac9Ac(a2-6)Gal(b1-4)GlcNAc
Outline: as §1

[25] = molecular target: Neu5Gc(a2-3)Gal(b1-3)GlcNAc
Outline: as §1

[26] = molecular target: Neu5Gc(a2-3)Gal(b1-3)[Fuc(a1-4)]GlcNAc
Outline: as §1

Neu5Gc(a2-3)Gal(b1-4)Glc = molecular target: Neu5Gc(a2-3)Gal(b1-4)Glc
Outline: as §1

[27] = molecular target: Neu5Gc(a2-3)Gal(b1-4)GlcNAc
Outline: as §1

[28] = molecular target: Neu5Gc(a2-3)Gal(b1-4)[Fuc(a1-3)]GlcNAc
Outline: as §1

[29] = molecular target: Neu5Gc(a2-6)Gal(b1-4)GlcNAc
Outline: as §1

Neu5Gc(a2-6)GalNAc = molecular target: Neu5Gc(a2-6)GalNAc
Outline: as §1

[30] = molecular target: Neu5Gc(b2-6)Gal(b1-4)GlcNAc
Outline: as §1

B1: Gal 3 (Homo sapiens), P17931 (protein)
chain: MADNFSLHDALSGSGNPNPQGWPGAWGNQPAGAGGYPGASYPGAYPGQAPPGAYPGQAPPGAYHGAPGAYPGAPAPGVYPGPPSGPGAYPSSGQPSAPGAYPATGPYGAPAGPLIVPYNLPLPGGVVPRMLITILGTVKPNANRIQLDFQRGNDVAFHFNPRFNENNRRVIVCNTKLDNNWGREERQSVFPFESGKPFKIQVLVEPDHFKVAVNDAHLLQYNHRVKKLNEISKLGISGDIDLTSASYTMI
- glycan array binding signal (z-score) [1]: -0.143
- glycan array binding signal (z-score) [2]: -0.201
- glycan array binding signal (z-score) [3]: -0.199
- glycan array binding signal (z-score) [4]: -0.191
- glycan array binding signal (z-score) [5]: -0.197
- glycan array binding signal (z-score) [6]: 1.03
- glycan array binding signal (z-score) [7]: 0.21
- glycan array binding signal (z-score) [8]: 1.65
- glycan array binding signal (z-score) [9]: -0.162
- glycan array binding signal (z-score) [10]: -0.189
- glycan array binding signal (z-score) [11]: -0.197
- glycan array binding signal (z-score) (Neu5Ac(a2-6)GalNAc): -0.205
- glycan array binding signal (z-score) [12]: -0.18
- glycan array binding signal (z-score) [13]: -0.188
- glycan array binding signal (z-score) [14]: -0.187
- glycan array binding signal (z-score) (Neu5Ac(a2-8)Neu5Ac): -0.165
- glycan array binding signal (z-score) [15]: 0.039
- glycan array binding signal (z-score) [16]: -0.198
- glycan array binding signal (z-score) [17]: -0.196
- glycan array binding signal (z-score) [18]: -0.173
- glycan array binding signal (z-score) [19]: -0.188
- glycan array binding signal (z-score) [20]: -0.168
- glycan array binding signal (z-score) [21]: -0.176
- glycan array binding signal (z-score) (Neu5Ac(b2-6)GalNAc): -0.151
- glycan array binding signal (z-score) [22]: -0.185
- glycan array binding signal (z-score) [23]: -0.197
- glycan array binding signal (z-score) [24]: -0.206
- glycan array binding signal (z-score) [25]: -0.17
- glycan array binding signal (z-score) [26]: -0.186
- glycan array binding signal (z-score) (Neu5Gc(a2-3)Gal(b1-4)Glc): -0.199
- glycan array binding signal (z-score) [27]: -0.185
- glycan array binding signal (z-score) [28]: -0.178
- glycan array binding signal (z-score) [29]: -0.193
- glycan array binding signal (z-score) (Neu5Gc(a2-6)GalNAc): -0.201
- glycan array binding signal (z-score) [30]: -0.164
